Assay results taken from article PMC10897448.
Like-named read-outs stand apart in the source and are kept apart here. Results are given in words; binding and its absence hold for the method and conditions named. For part of these data: Binding seen in cells or lysates may run through a third protein. Some binding calls cover weakened binding; strength is not graded here. For part of these data: Where a sequence is shown, tags or fusion partners need not be part of it. Values belong to the molecule of their own block, whether it stands above or below them.

Protein sequences, listed by entry. Tags and fused reporters are not part of them. Lines headed by an entry give the natural chain unless they say otherwise; changes in a name come on top.
UniProt P19484: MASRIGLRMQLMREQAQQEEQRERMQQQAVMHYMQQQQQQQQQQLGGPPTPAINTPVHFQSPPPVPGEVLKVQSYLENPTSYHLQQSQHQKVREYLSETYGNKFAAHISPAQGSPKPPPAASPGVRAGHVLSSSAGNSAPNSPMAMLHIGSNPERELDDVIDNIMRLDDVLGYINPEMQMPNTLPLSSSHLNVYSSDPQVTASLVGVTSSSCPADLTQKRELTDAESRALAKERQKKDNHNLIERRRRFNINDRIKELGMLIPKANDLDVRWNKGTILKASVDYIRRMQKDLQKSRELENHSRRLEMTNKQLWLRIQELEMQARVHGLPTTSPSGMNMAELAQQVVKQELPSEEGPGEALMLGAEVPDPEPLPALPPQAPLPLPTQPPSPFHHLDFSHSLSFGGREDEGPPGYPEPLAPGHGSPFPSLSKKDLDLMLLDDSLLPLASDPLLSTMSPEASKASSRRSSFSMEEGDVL
UniProt Q15388: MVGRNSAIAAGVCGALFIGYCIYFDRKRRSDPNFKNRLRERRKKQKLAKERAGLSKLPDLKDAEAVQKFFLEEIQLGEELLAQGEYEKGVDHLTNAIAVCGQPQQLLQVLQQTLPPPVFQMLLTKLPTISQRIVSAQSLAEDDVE

Experiments:
[1] = target: endogenous TFEB (transcription factor EB) (human (endogenous in HeLa)) (UniProt P19484); assay: co-IP; endogenous TFEB immunoprecipitated from 1 mg HeLa whole cell lysate (untreated or torin-1-treated) with 2 ug antibody overnight at 4 C, protein A sepharose beads; isotype rabbit IgG as negative control; immunoblot
[2] = target: MLS-TFEB FLAG (TFEB mutated in the mitochondrial localization sequence, V30K) (UniProt P19484); assay: co-IP; co-immunoprecipitation of ectopically expressed WT-TFEB or MLS-TFEB with TOMM20; told only in the discussion, no conditions given
[3] = target: WT-TFEB FLAG (ectopically expressed transcription factor EB) (UniProt P19484); assay: as above
[4] = target: endogenous TFEB (transcription factor EB) (human (endogenous in HeLa)) (UniProt P19484); assay: co-IP; endogenous TFEB immunoprecipitated from 1 mg HeLa whole cell lysate (untreated or torin-1-treated) with 2 ug antibody overnight at 4 C, protein A sepharose beads; isotype rabbit IgG as negative control; immunoblot; remark: listed apart in the source
[5] = target: TFEB-FLAG (overexpressed in HEK293T) (UniProt P19484); assay: co-IP; HEK293T cells overexpressing TFEB-FLAG and LONP1-HA; 1 mg lysate with M2 anti-FLAG and Protein G magnetic beads; empty vector as negative control; immunoblot
[6] = target: TFEB-FLAG (overexpressed in HEK293T) (UniProt P19484); assay: pull-down; LONP1-HA purified from HEK293T (anti-HA, eluted with HA peptide in Buffer A) incubated with TFEB-FLAG held on M2 anti-FLAG agarose beads or control beads; immunoblot; both purified

binding [1]: binds
Molecule: TOMM20 (endogenous, HeLa) (from UniProt Q15388 1-145)

binding [2]: no binding
binding [3]: binds
Molecule: TOMM20 (in cells expressing ectopic TFEB) (from UniProt Q15388 1-145)

binding [4]: binds
B1: LONP1 (endogenous, HeLa) (enzyme, UniProt P36776 68-959)
chain: FWEASSRGGGAFSGGEDASEGGAEEGAGGAGGSAGAGEGPVITALTPMTIPDVFPHLPLIAITRNPVFPRFIKIIEVKNKKLVELLRRKVRLAQPYVGVFLKRDDSNESDVVESLDEIYHTGTFAQIHEMQDLGDKLRMIVMGHRRVHISRQLEVEPEEPEAENKHKPRRKSKRGKKEAEDELSARHPAELAMEPTPELPAEVLMVEVENVVHEDFQVTEEVKALTAEIVKTIRDIIALNPLYRESVLQMMQAGQRVVDNPIYLSDMGAALTGAESHELQDVLEETNIPKRLYKALSLLKKEFELSKLQQRLGREVEEKIKQTHRKYLLQEQLKIIKKELGLEKDDKDAIEEKFRERLKELVVPKHVMDVVDEELSKLGLLDNHSSEFNVTRNYLDWLTSIPWGKYSNENLDLARAQAVLEEDHYGMEDVKKRILEFIAVSQLRGSTQGKILCFYGPPGVGKTSIARSIARALNREYFRFSVGGMTDVAEIKGHRRTYVGAMPGKIIQCLKKTKTENPLILIDEVDKIGRGYQGDPSSALLELLDPEQNANFLDHYLDVPVDLSKVLFICTANVTDTIPEPLRDRMEMINVSGYVAQEKLAIAERYLVPQARALCGLDESKAKLSSDVLTLLIKQYCRESGVRNLQKQVEKVLRKSAYKIVSGEAESVEVTPENLQDFVGKPVFTVERMYDVTPPGVVMGLAWTAMGGSTLFVETSLRRPQDKDAKGDKDGSLEVTGQLGEVMKESARIAYTFARAFLMQHAPANDYLVTSHIHLHVPEGATPKDGPSAGCTIVTALLSLAMGRPVRQNLAMTGEVSLTGKILPVGGIKEKTIAAKRAGVTCIVLPAENKKDFYDLAAFITEGLEVHFVEHYREIFDIAFPDEQAEALAVER

binding [5]: binds
binding [6]: binds
B2: LONP1-HA (enzyme, UniProt P36776 68-959)
chain: B1 chain
